# Assay results as given in the supplement of paper PMC11417369.
# The other results are listed elsewhere or left out.
# Tested on: PfSIP2 AP2 domain 1 (GST-tagged)
# Experiment: gcPBM binding intensity (ln(normalized median fluorescence intensity)); higher = stronger DNA binding
# Summary of the method: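 The highest Masliner-normalised natural-log median intensity across replicate spots of either probe orientation is reported as binding intensity. GST-tagged P. falciparum DNA-binding domains expressed in E. coli were applied for 1 h to an Agilent 4 × 180k array of primer-extended double-stranded 36-bp intergenic genomic probes plus negative controls, and bound protein was detected with Alexa488 anti-GST antibody and scanned at 488 nm.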
row,Sequence,gcPBM binding intensity (ln)
1,TTATTTATAAACATATGTACTAATACATGATTAACA [XGTACX_site7645],7.04
2,GACATATATATAAAATGTACATATATATTTACATAT [XGTACX_site7822],7.03
3,TGATAATAAGCATACACACACACACTAGAAAAAAAA [CACACA_site4558],7.05
4,TGTTCTTTATTTTATTGTACTTTTAAAATTCCTTTA [XGTACX_site8058],7.24
5,AAAAAAAAAAGACATGCATACGCTAATTTTTAGTTG [TGCATGCA_site300],6.58
6,ATATATTTTTAAAAAAATTAAGAATTTTACATCTCC [CACACA_negctrl_site1450],6.87
7,TATTATAATAAGAAGTGTACGTGTTTTTATAAATAA [XGTACX_site575],7.38
8,TATAAAAAAAACGAAAAAAAAAAAAAAAATACAGGA [TGCATGCA_negctrl_site585],6.9
9,ATTATGTTTCTTTTTTTTTTTAAAGGATGTCTTTTT [CACACA_negctrl_site974],6.72
10,TTTAAGCAAAAACACACACACATATATATATATATA [CACACA_site349],9.52
11,TATAAATATATATACACACACATATATATTATATAT [CACACA_site596],7.18
12,AAAAAATGATAATATACACACTTATGGGAGAGCGCA [CACACA_site5398],6.92
13,AATATTAAACAAAATAAATATATAAAAAATAAATAA [GTGCAC_negctrl_site93],6.79
14,AAGTTATATTTGTGTACACATAATTTTATACTAATA [CACACA_site5553],7.67
15,TATTTAATACGGACTCATAAATCTTAATAAAAAAAA [CACACA_negctrl_site434],7
16,TCCCTTTGTATATATATATAAATATATATATATATA [CACACA_negctrl_site157],9.18
17,TTTATCGAATATAATAGTACATAAAAAAAAAAAAAA [XGTACX_site1734],7.17
18,AGATTATATAAAAAAGTGCATATTTTCATTTTTTTT [GTGCAC_site9448],8.47
19,CATTAAAATGGTAAATGTACATATCCATCTTCTCAC [XGTACX_site4636],6.94
20,ACATTTTTTTTGTGAGTCTTTGCGGCATCAAAATTT [XGTACX_negctrl_site348],6.84
21,AAAAAAGAAAAAAACTGTACATGATAAATATTTATT [XGTACX_site7270],6.67
22,TTATGAAGCAGACATGCATGTTATGGCTTAAATAAT [TGCATGCA_site492],6.89

row,Sequence,gcPBM binding intensity (ln)
1,TTTTAAATAAAAAAATTAAATTAAAATATATAAAAA [XGTACX_negctrl_site490],6.66
2,TGTTTATACAATATTTGTACATATATTTTTATTTTT [XGTACX_site4104],6.94
3,CATTTTTACAACGTTGCACACTTCAAAAGGTTTACA [CACACA_site2760],7.53
4,GATACTCTCTTTTAATGTACAAAATTTTAAAAATTA [XGTACX_site1781],7.58
5,TATAAAAAAAAAAAAAGTACTTAAATATAAATAAAT [XGTACX_site5052],7.11
6,GTTCCATGAGTATATACATGCATATATCTAGTTTAT [TGCATGCA_site388],7.13
7,AATTAAAAAAAATACACACACACATACCCATATATA [CACACA_site5767],6.96
8,AATGATATATTATAAACACACAAAGATGAATATATA [CACACA_site2818],6.85
9,ATTCATTCATATGTTACACACACACCCACCCATAAA [CACACA_site9066],7.36
10,TACCCTCGTATATATATACACACTAAAATACAGACA [CACACA_site4154],7.27
11,AATTTATGTTTTAAAAGTACTTTTCTAATTTATAAA [XGTACX_site1593],6.93
12,TATGTACAGACATATACACACCTCTATAATCTATAT [CACACA_site6482],7.09
13,CTAAAGTAAATTTAAGCACACACAACGAATTTTTAT [CACACA_site8599],6.91
14,TAAAATAAAAATTTATGTACACATAAAAAAACAAAA [XGTACX_site1112],7.15
15,GAGAGTACCTATATTGCATGCAGACTTTTTAAATAT [TGCATGCA_site564],7.18
16,TTTTTTTTTTTTTGTAGTACATTATGTATATTTTTA [XGTACX_site7810],6.97
17,TTAATAAGAGAGCAATAGGTGGACTGTTTCTTTTAT [CACACA_negctrl_site1239],6.68
18,GTTAAAATAATATGGTGTACAAATATATAAGTTCAT [XGTACX_site3262],7.12
19,ATATATATATATAAAAGTACTTATTTTTATTTACAT [XGTACX_site4299],8.86
20,ATTTATATTACCCTTGCATGTAGGTGCAATTTTTTT [TGCATGCA_site757],11
21,CATTTTGTTTTAAAGTGTACATTATGTAATATAAAA [XGTACX_site647],7.15
22,TTTTTATAGGTAAAAACACACGCTAAAAATAATTAA [CACACA_site3731],6.95

row,Sequence,gcPBM binding intensity (ln)
1,AATAAATATATATTCACACACAAACATATATATATA [CACACA_site4023],9.1
2,TTTATAATTTATATCACACACATATATATATAGTAA [CACACA_site8],7.05
3,AAATAAATAAATAAATAAACAAATATGTATAAATGG [XGTACX_negctrl_site153],7.13
4,AGGTACTTTTTTAAAACACACATATAATAAATACAC [CACACA_site4730],7.62
5,ATAAGATTAAACATTGCACACAGAAATATATTTTCT [CACACA_site8743],7
6,TATATATATATATATTGTACATATGTAACCTTTTAA [XGTACX_site3914],9.26
7,CCTATATAATATATTTGTACTTAATAATTAAAGTGT [XGTACX_site5151],7.16
8,TTTTTTAGATTACATAAATATAAATATAAATATATA [GTGCAC_negctrl_site459],6.68
9,TCAACTATCAATATAGTGCATTTTTTTTGGAAAACC [GTGCAC_site9927],8.5
10,TATCAAAATTAGTATACACACAAAATTAATCAAATA [CACACA_site7117],6.94
11,TTTAAATATATATATTGTACAAAAAAAAATAATAAA [XGTACX_site4759],6.93
12,ATAAAATTTATGACTTGTACATGTAAATAAAATATA [XGTACX_site762],7.15
13,TGTAGAACTCAATATTGTACATTATATAAAATGGGA [XGTACX_site3857],7.13
14,ATATATATATATTGTACACACATTTATGCATATATA [CACACA_site5738],9.2
15,TTTTTTTGCATTTCATGTACATATATTGAGCTTAAA [XGTACX_site8485],7.3
16,CTTCTTGTAAAATTTGCATGTAATTAAAAGAGAATG [TGCATGCA_site484],7.04
17,GCCTTTTAGTATTTCACACACGTAAATGAGTATATC [CACACA_site4748],7.27
18,TTCCCTATCTTTTCAGTGCATTTTGTTTCCTACCTT [GTGCAC_site9813],8.98
19,ATAAAGAATATAAATACACACTTAAATATAGATTAT [CACACA_site7804],6.76
20,ATTGGTTCCCCTCTCTTTTCAATATATTTTTTTTTT [XGTACX_negctrl_site259],6.81
21,GATATAGGGCGTATGTTAATCGTGAAAGAGTGTCTT [GTGCAC_negctrl_site102],6.98
22,TTCAAATGATTTATGTGTACATAAAATTATTTTTTA [XGTACX_site107],6.83

row,Sequence,gcPBM binding intensity (ln)
1,AAAAAATTAAAAATCACACATAAATATATATAAAAA [CACACA_site4192],7.02
2,TAATGAAGCTTATGCACACGTTCATTATTTATATTA [CACACA_site3219],9.08
3,ATATTACAGTACAATACATGCATATGGAAAAAAAAA [TGCATGCA_site72],7.23
4,TACTTATATTGAAATGGTACAGATAAAAAAAAAAAA [XGTACX_site1407],6.94
5,TTTTGTAATGTGAATATTTGTATATTATTTGTATAT [CACACA_negctrl_site1677],7.03
6,ACATTCTATCTAAGTACACACATTAATTTTTTTTTT [CACACA_site4106],7.34
7,AATTTACATATATATTGTACATTTATGTATATATAT [XGTACX_site4186],7.77
8,TAATATTTTTTGTGTACACATATATATATATATATA [CACACA_site5504],8.94
9,AATTAGATGGATAAATGTACATATGTGAATATATTT [XGTACX_site85],7.16
10,GTGCCCTTTTTAATAACATGCAAATAACATATTTAT [TGCATGCA_site709],8.06
11,AAAAAAAAAAAAAACACACAAACATCAAATTATTAT [CACACA_site1838],7.28
12,TTTATATTATACGCACTAATATATATATATATATAT [TGCATGCA_negctrl_site47],9.7
13,ATATAACACAAGGGCACACATATACCTTTCCTTTTT [CACACA_site412],7.19
14,ATCTTATATCGTAGAGATTTTTTTTTTTTTTCATTT [XGTACX_negctrl_site140],6.7
15,AATTTCTTCTTAGGGTGTACAATTTGACATAAGGAA [XGTACX_site1773],7.43
16,GTAATATATATTAAGTAATAGTTTATCTTAGGAAAA [TGCATGCA_negctrl_site302],6.88
17,GATCCATTATTGATCCGTACTTATTCATGTTATATA [XGTACX_site5946],6.92
18,TGTTATAAGATTTATGTACACACATATACACCCCTC [CACACA_site8141],7.54
19,TATATATGTATATATACACACAACGGTTATAAATAT [CACACA_site1128],7.21
20,TATATATATATATGTATGCACTTTAATTTTATAAGG,9.6
21,AATATAAATAAAAACACACACACACCGATATATATA [CACACA_site5283],7.31
22,AAGATTAGGTTAATTAGTACTTATTATATTGTAATG [XGTACX_site3653],6.85
